Among all 110,000 compounds or so, about 230 (0.21%) showed an effect of 50% or more. Some of the results follow.
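Further: 30 min substrate incubation versus DMSO and 10 µM JCP410 controls.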

Sequence of DPAP1 (Q8IIJ9 whole entry, looked up): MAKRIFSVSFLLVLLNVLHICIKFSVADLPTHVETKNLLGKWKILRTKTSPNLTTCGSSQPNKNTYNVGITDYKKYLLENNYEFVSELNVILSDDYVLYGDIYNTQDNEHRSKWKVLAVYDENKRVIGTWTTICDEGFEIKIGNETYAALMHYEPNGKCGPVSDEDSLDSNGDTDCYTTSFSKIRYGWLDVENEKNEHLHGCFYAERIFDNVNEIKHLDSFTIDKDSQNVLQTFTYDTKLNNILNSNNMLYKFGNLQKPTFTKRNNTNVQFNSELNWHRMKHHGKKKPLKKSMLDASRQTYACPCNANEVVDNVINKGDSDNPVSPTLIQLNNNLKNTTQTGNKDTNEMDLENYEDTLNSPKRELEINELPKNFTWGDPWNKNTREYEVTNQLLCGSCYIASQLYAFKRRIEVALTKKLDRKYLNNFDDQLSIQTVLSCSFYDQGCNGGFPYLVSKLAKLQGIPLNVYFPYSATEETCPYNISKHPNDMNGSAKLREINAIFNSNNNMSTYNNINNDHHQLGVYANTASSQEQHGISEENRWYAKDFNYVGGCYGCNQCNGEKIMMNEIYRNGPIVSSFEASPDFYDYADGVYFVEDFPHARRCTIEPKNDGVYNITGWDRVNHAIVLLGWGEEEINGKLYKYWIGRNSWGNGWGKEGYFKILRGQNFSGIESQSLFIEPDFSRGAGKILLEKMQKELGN

The experiment addresses DPAP1 (Plasmodium falciparum, UniProt Q8IIJ9). In words: primary screen, percent inhibition; read by cleavage of a fluorogenic dipeptide substrate; higher = more effect of the substance. Further details: species or system P. falciparum D10 trophozoite lysates; single well.
Regarding `CC1(C)Oc2ccc3ccc(=O)oc3c2C(N=O)=C1O`, the “% Inhibition @ 10 uM” value is recorded as -1.05%.

Regarding `CCCCCOC(=O)Nc1nnc(C)s1`, the “% Inhibition @ 10 uM” value is on record as 1.13%.

Turning to `O=C(CSc1ncccn1)N1c2ccccc2Sc2ccc(Cl)cc21`, the “% Inhibition @ 10 uM” value is given as -0.545%.

Turning to `COc1ccc(C2=NN3C(C2)c2cccc(OC)c2OC3c2ccccc2)cc1` (stereo not shown), the “% Inhibition @ 10 uM” value is given as 5.5%.

For the compound `COc1nsnc1N1CCOCC1`, the “% Inhibition @ 10 uM” value came to 3.36%.

`COc1ccc2nc(C)cc(Nc3ccccc3)c2c1`: the “% Inhibition @ 10 uM” value is given as 1.72%.

For the compound `O=C(/C(=C/c1cc(Cl)ccc1O)n1cncn1)c1ccc(Cl)cc1Cl`, the “% Inhibition @ 10 uM” value was -1.71%.

Regarding `O=c1c2cccnc2n(Cc2ccccc2Cl)c(=O)n1Cc1ccccc1`, the “% Inhibition @ 10 uM” value worked out at 0.0579%.

On to `CCN1C(=O)[C@H]2Cc3c([nH]c4ccccc34)[C@@H](c3ccc(OC)c(OC)c3)N2C1=S`, for which the “% Inhibition @ 10 uM” value was determined as 2.94%.

On to `COc1cc(N)n(S(=O)(=O)c2ccc(C)cc2)n1`, for which the “% Inhibition @ 10 uM” value came to 0.0289%.

For `COC(=O)c1ccc(Cl)c(-c2ccc(C(=O)N[C@@H](CC(C)C)C(=O)NCC#N)cc2)c1`, the “% Inhibition @ 10 uM” value was 1.35%.

Take `CCc1ccc(C2CC(c3cc(OC)ccc3OC)n3nnnc3N2)cc1` (stereo not shown): the “% Inhibition @ 10 uM” value was -3.37%.

Turning to `Cc1nc2nc(C)c(CCC(=O)N3CC(C)CC(C)C3)c(C)n2n1` (stereo not shown), the “% Inhibition @ 10 uM” value is given as 1.26%.

On to `COc1ccccc1NC(=O)/C(=C\c1cccnc1)NC(=O)c1ccc(C)cc1`, for which the “% Inhibition @ 10 uM” value is -4.98%.

`COc1ccccc1/C=C/c1nc(C#N)c(N2CCN(Cc3ccccc3)CC2)o1`: the “% Inhibition @ 10 uM” value is -0.808%.

In the case of `CCc1ccc(CN2C[C@@H]3C[C@H](C2)c2cccc(=O)n2C3)cc1`, the “% Inhibition @ 10 uM” value is -5.48%.

As to `O=C1CC(NC2CCCC2)C(=O)N1c1cccc(C(F)(F)F)c1` (stereo not shown), the “% Inhibition @ 10 uM” value is on record as -3.53%.

For the compound `CCN(CC)C(=O)C1CCCN(CC(c2ccccc2)c2ccccc2)C1` (stereo not shown), the “% Inhibition @ 10 uM” value stood at 2.1%.

Consider `COc1ccc(/C=C2/c3ccccc3-c3cccnc32)cc1`, for which the “% Inhibition @ 10 uM” value is reported as -6.71%.

For the compound `Cc1cc(C)c(C#N)c(SCC(=O)c2cc3ccccc3oc2=O)n1`, the “% Inhibition @ 10 uM” value turned out to be 4.63%.

Take `COc1ccccc1CNC(=O)c1noc2c1CSc1ccccc1-2`: the “% Inhibition @ 10 uM” value was 62.7%.

For the compound `O=C(c1ccco1)n1nc(-c2cccnc2)nc1NCc1ccc(F)cc1`, the “% Inhibition @ 10 uM” value is given as 0.558%.

For the compound `CCCCOC(=O)C1=C(N)N2C(=O)C(C)SC2=C(C(=O)OCC)C1c1ccc(O)c(OC)c1` (stereo not shown), the “% Inhibition @ 10 uM” value was 2.7%.

As to `CC(C)OC(=O)c1c(NS(=O)(=O)c2ccccc2)sc2c1CCCC2`, the “% Inhibition @ 10 uM” value is 1.64%.

For `O=c1cc(CO)oc(C(Nc2ccccn2)c2cccc(Cl)c2)c1O` (stereo not shown), the “% Inhibition @ 10 uM” value is on record as -7.35%.

As for `C=CCSc1nc2cccnc2[nH]1`, the “% Inhibition @ 10 uM” value came to 2.22%.

On to `O=C(c1ccc2c(Cl)c3c(nc2c1)CCCC3)N1CCCCCC1`, for which the “% Inhibition @ 10 uM” value is -0.942%.

Regarding `CN1CCN(CC(O)COCCC23CC4CC(CC(C4)C2)C3)CC1` (stereo not shown), the “% Inhibition @ 10 uM” value was -2.15%.

Values taken from publication PMC6919601, “Identification of Plasmodium dipeptidyl aminopeptidase allosteric inhibitors by high throughput screening” (PLoS ONE, 2019).
